# Assay results as given in the supplement of paper PMC8728848.
# Some of the results follow.
# B1: RVL (Remusatia vivipara), B5LYJ9 (protein)
# chain: MAKLLLFLLPAILGLLVPRSAVALGTNYLLSGQTLDTEGHLKNGDFDLVMQDDCNLVLYNGNWQSNTANNGRDCKLTLTDYGELVIKNGDGSTVWKSGAQSVKGNYAAVVHPDGRLVVLGPSVFKIDPWVRGLNSLRFRNIPFTNNLLFSGQVLYGDGRLTAKNHQLVMQGDCNLVLYGGKYGWQSNTHGNGEHCFLRLNHKGELIIKDDDFKTIWSSRSSSKQGEYVLILQDDGFGVIYGPAIFETSSKRSIAAS
# Tests used:
# Assay in all cases: glycan array binding signal (z-score within array); higher = stronger binding
# Details in all cases: glycan notation: IUPAC condensed, linker removed
# [1] = target: GalNAc4S6S(b1-4)GlcNAc
# Summary of the method: (§1)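 Arrays were curated from the Consortium for Functional Glycomics database, 3228 in total, and kept only where the protein sequence was available. Binding is expressed as a within-array Z-score. This score was averaged across arrays of the same protein sequence at different concentrations or buffers and across linkers, and negative values can be read as non-binding.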
# [2] = target: GalNAc6S(b1-4)GlcNAc
# Summary of the method: as §1
# [3] = target: Glc(a1-4)Glc
# Summary of the method: as §1
# [4] = target: Glc(a1-4)Glc(a1-4)Glc(a1-4)Glc
# Summary of the method: as §1
# [5] = target: Glc(a1-6)Glc(a1-6)Glc
# Summary of the method: as §1
# [6] = target: Glc(a1-6)Glc(a1-6)Glc(a1-6)Glc
# Summary of the method: as §1
# [7] = target: Glc(b1-4)Glc
# Summary of the method: as §1
# [8] = target: Glc(b1-6)Glc
# Summary of the method: as §1
# [9] = target: GlcA(b1-3)Gal
# Summary of the method: as §1
# [10] = target: GlcA(b1-3)GlcNAc
# Summary of the method: as §1
# [11] = target: GlcA(b1-6)Gal
# Summary of the method: as §1
# [12] = target: GlcNAc(a1-3)Gal(b1-4)GlcNAc
# Summary of the method: as §1
# [13] = target: GlcNAc(a1-4)Gal(b1-3)GlcNAc
# Summary of the method: as §1
# [14] = target: GlcNAc(a1-4)Gal(b1-4)GalNAc
# Summary of the method: as §1
# [15] = target: GlcNAc(a1-4)Gal(b1-4)GlcNAc
# Summary of the method: as §1
# [16] = target: GlcNAc(a1-4)Gal(b1-4)GlcNAc(b1-3)Gal(b1-4)Glc
# Summary of the method: as §1
# [17] = target: GlcNAc(a1-4)Gal(b1-4)GlcNAc(b1-3)Gal(b1-4)GlcNAc
# Summary of the method: as §1
# [18] = target: GlcNAc(a1-4)Gal(b1-4)GlcNAc(b1-3)Gal(b1-4)GlcNAc(b1-3)Gal(b1-4)GlcNAc
# Summary of the method: as §1
# [19] = target: GlcNAc(a1-4)Gal(b1-4)GlcNAc(b1-3)Gal(b1-4)[Fuc(a1-3)]GlcNAc(b1-3)Gal(b1-4)[Fuc(a1-3)]GlcNAc
# Summary of the method: as §1
# [20] = target: GlcNAc(a1-6)Gal(b1-4)GlcNAc
# Summary of the method: as §1
# [21] = target: GlcNAc(b1-2)Gal(b1-3)GalNAc
# Summary of the method: as §1
# [22] = target: GlcNAc(b1-2)Man(a1-3)[GlcNAc(b1-2)Man(a1-6)]Man(b1-4)GlcNAc(b1-4)GlcNAc
# Summary of the method: as §1
# [23] = target: GlcNAc(b1-2)Man(a1-3)[GlcNAc(b1-2)Man(a1-6)]Man(b1-4)GlcNAc(b1-4)[Fuc(a1-6)]GlcNAc
# Summary of the method: as §1
# [24] = target: GlcNAc(b1-2)Man(a1-3)[GlcNAc(b1-4)][GlcNAc(b1-2)Man(a1-6)]Man(b1-4)GlcNAc(b1-4)GlcNAc
# Summary of the method: as §1
# [25] = target: GlcNAc(b1-2)[GlcNAc(b1-4)]Man(a1-3)[GlcNAc(b1-2)Man(a1-6)]Man(b1-4)GlcNAc(b1-4)GlcNAc
# Summary of the method: as §1
# [26] = target: GlcNAc(b1-2)[GlcNAc(b1-4)]Man(a1-3)[GlcNAc(b1-4)][GlcNAc(b1-2)Man(a1-6)]Man(b1-4)GlcNAc(b1-4)GlcNAc
# Summary of the method: as §1
# [27] = target: GlcNAc(b1-2)[GlcNAc(b1-4)]Man(a1-3)[GlcNAc(b1-4)][GlcNAc(b1-2)[GlcNAc(b1-6)]Man(a1-6)]Man(b1-4)GlcNAc(b1-4)GlcNAc
# Summary of the method: as §1
# [28] = target: GlcNAc(b1-2)[GlcNAc(b1-4)]Man(a1-3)[GlcNAc(b1-4)][GlcNAc(b1-2)[GlcNAc(b1-6)]Man(a1-6)]Man(b1-4)GlcNAc(b1-4)[Fuc(a1-6)]GlcNAc
# Summary of the method: as §1
# [29] = target: GlcNAc(b1-2)[GlcNAc(b1-6)]Man(a1-6)[GlcNAc(b1-2)Man(a1-3)]Man(b1-4)GlcNAc(b1-4)GlcNAc
# Summary of the method: as §1
# [30] = target: GlcNAc(b1-2)[GlcNAc(b1-6)]Man(a1-6)[GlcNAc(b1-2)Man(a1-3)]Man(b1-4)GlcNAc(b1-4)[Fuc(a1-6)]GlcNAc
# Summary of the method: as §1
# [31] = target: GlcNAc(b1-2)[GlcNAc(b1-6)]Man(a1-6)[GlcNAc(b1-2)Man(a1-3)][GlcNAc(b1-4)]Man(b1-4)GlcNAc(b1-4)GlcNAc
# Summary of the method: as §1
# [32] = target: GlcNAc(b1-3)Gal
# Summary of the method: as §1
# [33] = target: GlcNAc(b1-3)Gal(b1-3)GalNAc
# Summary of the method: as §1
# [34] = target: GlcNAc(b1-3)Gal(b1-4)Glc
# Summary of the method: as §1
# [35] = target: GlcNAc(b1-3)Gal(b1-4)GlcNAc
# Summary of the method: as §1
# [36] = target: GlcNAc(b1-3)Gal(b1-4)GlcNAc(b1-3)Gal(b1-4)GlcNAc
# Summary of the method: as §1
# [37] = target: GlcNAc(b1-3)GalNAc
# Summary of the method: as §1
binder,measurement,setting,value
B1,glycan array binding signal (z-score),[1],-0.406
same,glycan array binding signal (z-score),[2],-0.261
same,glycan array binding signal (z-score),[3],-0.087
same,glycan array binding signal (z-score),[4],-0.009
same,glycan array binding signal (z-score),[5],-0.193
same,glycan array binding signal (z-score),[6],-0.096
same,glycan array binding signal (z-score),[7],0.059
same,glycan array binding signal (z-score),[8],-0.243
same,glycan array binding signal (z-score),[9],-0.177
same,glycan array binding signal (z-score),[10],-0.098
same,glycan array binding signal (z-score),[11],-0.23
same,glycan array binding signal (z-score),[12],-0.202
same,glycan array binding signal (z-score),[13],-0.171
same,glycan array binding signal (z-score),[14],-0.084
same,glycan array binding signal (z-score),[15],0.014
same,glycan array binding signal (z-score),[16],-0.138
same,glycan array binding signal (z-score),[17],-0.035
same,glycan array binding signal (z-score),[18],0.124
same,glycan array binding signal (z-score),[19],0.3
same,glycan array binding signal (z-score),[20],0.014
same,glycan array binding signal (z-score),[21],-0.05
same,glycan array binding signal (z-score),[22],0.913
same,glycan array binding signal (z-score),[23],0.93
same,glycan array binding signal (z-score),[24],-0.244
same,glycan array binding signal (z-score),[25],2.4
same,glycan array binding signal (z-score),[26],-0.163
same,glycan array binding signal (z-score),[27],-0.065
same,glycan array binding signal (z-score),[28],-0.254
same,glycan array binding signal (z-score),[29],0.436
same,glycan array binding signal (z-score),[30],0.635
same,glycan array binding signal (z-score),[31],-0.16
same,glycan array binding signal (z-score),[32],-0.164
same,glycan array binding signal (z-score),[33],-0.187
same,glycan array binding signal (z-score),[34],-0.186
same,glycan array binding signal (z-score),[35],-0.145
same,glycan array binding signal (z-score),[36],-0.186
same,glycan array binding signal (z-score),[37],-0.211
